B1: LINE1-mini (parent)
chain: GGCAGAGCUCAACACAGCGUGGCAAAGUGGCUGUGGCUAGACUGCC

The source gives no read counts; variants with many changes may rest on few reads.

The variants in this data set derive from B1. Kind of data set: self-cleavage, relative activity (ratio to wild type); higher = more cleavage; in vitro, sequencing; the parent is a self-cleaving ribozyme.
As for GGCAGAGCUUAAUACAGCGUGGCAAAGUGGCUGUGGCUCGAGUGCU [C10U C13U A39C C42G C46U], the self-cleavage was determined as 0.03.
On to GGCAGAGCUUAAGACAGCGUGGCAAAGAGGCUGUGACUAGACUGCC [C10U C13G U28A G36A], for which the self-cleavage was determined as 0.04.
To GGCAGAGCUUAAUCCAGCGUGGCACAGUGGCUGUGGCUAGACUGCC [C10U C13U A14C A25C] belongs 0.02; to GGCAGAGCUUAACUCAGCGCGGCAAAGUGGCUGUGUCUAGACUGCC [C10U A14U U20C G36U], 0.01.
As to GGCAGAGCUUAAGACAGCGAGGCAAAGUGGCUGUGGCUAGACUGCC [C10U C13G U20A], the self-cleavage is 0.12.
Consider GGCAGAGCUUAACACGGCGUGGCAAAGUGGCUGUGGGUAGACUGCC [C10U A16G C37G], for which the self-cleavage came to 0.02.
On to GGCAGAGCUUAAGACAGCGCGGCAUAGUGUCUGUCGCAAGACUGCC [C10U C13G U20C A25U G30U G35C U38A], for which the self-cleavage was determined as 0.02.
As for GGCAGAGCUUAACAGAGCGUGGCAAAGUGGCUGUCGCGAGACUACC [C10U C15G G35C U38G G44A], the self-cleavage amounted to 0.
With GGCAGAGCUUAUCACAGCGUGGCAAAGUGGCUAUGGCUAGACUGCC [C10U A12U G33A] the figure was 0.02.
Consider GGCAGAGCUUAAUACAGCGUGGUAAAGUGGCUGUGGCUAUACUGCC [C10U C13U C23U G40U], for which the self-cleavage is 0.01.
As to GGCAGAGCUUAAGACAGCGUGGCAAAGUGGCUGUGGCUCGACUGCC [C10U C13G A39C], the self-cleavage came to 0.08.
With GGCAGAGCUUAACACAGCGUGGCAAAGUGGCUGUGGCUCGACUGCG [C10U A39C C46G], the self-cleavage is 0.04.
To GGCAGAGCUUAACAAAGCGUGGCAAAGUGUCUGUGGCUAGACUGCC [C10U C15A G30U] belongs 0.02; to GGCAGAGCUUAACACUGCGUGGCAAAGUGGUUGUGGCUAGACUGCC [C10U A16U C31U], 0; to GGCAGAGCUUAAAACAGCGUGGCAAAGUGGCUGUGGCUAGACUUCC [C10U C13A G44U], 0.04.
As for GGCAGAGCUUAACGCAGCGUGGCACAUUGGCUGUGGCUAGACUGCC [C10U A14G A25C G27U], the self-cleavage was 0.25.
Take GGCAGAGCUUAGCACGGCGUGGCAAAGUGCCUGUGGCUAUGCUGCC [C10U A12G A16G G30C G40U A41G]: the self-cleavage stood at 0.
For the variant GGCAGAGCUUAACAUAGCGUGGCAAGGUGGCUGUGGCCAGACUGUC [C10U C15U A26G U38C C45U], the self-cleavage amounted to 0.06.
GGCAGAGCUUAGCACAGCGUGGCAAAGUGGCUGUGGCCAGACUGCC [C10U A12G U38C]: the self-cleavage is 0.05.
As for GGCAGAGCUUAGCACAGCGUGGCAAAGUGGCUGUGGCUAAACUGCC [C10U A12G G40A], the self-cleavage was determined as 0.01.
On to GGCAGAGCUUAACACCGCCUGGCAAAGUGGCUAUGGCUAGACUGCC [C10U A16C G19C G33A], for which the self-cleavage was 0.04.
Take GGCAGAGCUUAAAACAGCGUGGUAAAGUGGCUGUGGCUAGACUGCC [C10U C13A C23U]: the self-cleavage worked out at 0.06.
GGCAGAGCUUAACACAGCGUGGCCAAGUGGUAUUGGCUAGACUGCC [C10U A24C C31U U32A G33U]: the self-cleavage amounted to 0.04.
GGCAGAGCUUAACCCAGCGUGGCAAAGUGGCUAUGGCUACACUGCC [C10U A14C G33A G40C]: the self-cleavage was 0.02.
As for GGCAGAGCUUAAGACAGCGUGGCACAGAGGCUGUGGCUAGACUGCG [C10U C13G A25C U28A C46G], the self-cleavage stood at 0.01.
With GGCAGAGCUUAACACAGCGUGGCUACGUGGCUGUGGCUAGCCUGCC [C10U A24U A26C A41C], the self-cleavage was determined as 0.03.
With GGCAGAGCUUAACGCAGGGUGGGAAAGUGGCUGUGGCCAGACUGCC [C10U A14G C18G C23G U38C], the self-cleavage worked out at 0.01.
For GGCAGAGCUUAACACUGCGUGGCAAAGUUGCUGUGGCUAGACUGCC [C10U A16U G29U], the self-cleavage was 0.52.
Take GGCAGAGCUUAACACAGCGUGGCCAAGUCGCAGUGGCCUGACUGCC [C10U A24C G29C U32A U38C A39U]: the self-cleavage turned out to be 0.02.
Regarding GGCAGAGCUUAACAAAGCGUGGCAAAAUGGCUGUGGUUAGACUGCC [C10U C15A G27A C37U], the self-cleavage amounted to 0.
Take GGCAGAGCUUAACACGGCGUGGCAAAAUGGCUGUGCCUAGACUGCC [C10U A16G G27A G36C]: the self-cleavage was found to be 0.05.
As for GGCAGAGCUUAACACUGCGUGGCAAAGUGGCUGUGGCUAGCCUGCC [C10U A16U A41C], the self-cleavage came to 0.02.
As for GGCAGAGCUUAAUACUGCGUGGCAAUGUGCCAGUGGCUAGACUGCC [C10U C13U A16U A26U G30C U32A], the self-cleavage was found to be 0.05.
On to GGCAGAGCUUAACACCGCGUGACAAAGUGGCUGUGGCUAGACUGCC [C10U A16C G22A], for which the self-cleavage came to 0.04.
GGCAGAGCUUAACCCAGCGUGGCAAAGUGGCUCUGGCUAGACUGCC [C10U A14C G33C]: the self-cleavage was determined as 0.01.
To GGCAGAGCUUAACACAGCGUGGCACAGUGCCUGUGGCUAGACUGCA [C10U A25C G30C C46A] belongs 0.06; to GGCAGAGCUUAGCACAGCGUAUCAAAGUGGCUGUGGGUAGACUGCC [C10U A12G G21A G22U C37G], 0.02; to GGCAGAGCUUAACACGGCGUGGCAAAGUGGCUAUGGCUAGACUGCC [C10U A16G G33A], 0.05.
With GGCAGAGCUUAACCCAUCGUGGCAAAUUGGCUUUGCCCAUACUGCC [C10U A14C G17U G27U G33U G36C U38C G40U] the figure was 0; with GGCAGAGCUUAACACAGCGUGGCUAAGUGGCUGAGGCUAGACUGCC [C10U A24U U34A], 0.02; with GGCAGAGCUUAACACAGCGUGGCCAAGUGGCUGUGGAUAGACUGCC [C10U A24C C37A], 0.02.
Turning to GGCAGAGCUUAUCACAGCGUGGCAAAGUGUCUGUGGAUAGACUGCC [C10U A12U G30U C37A], the self-cleavage was found to be 0.01.
Turning to GGCAGAGCUUAACGCAACGUGGGAAAGUGGCUGUGGCUAGACUGCC [C10U A14G G17A C23G], the self-cleavage was 0.03.
For GGCAGAGCUUAACAAAGCGUGGCAAAGUGGCUGUGGCUAGUCUCCG [C10U C15A A41U G44C C46G], the self-cleavage was 0.04.
For the variant GGCAGAGCUUAACACUGCGUGGCAAAGUGGCUGUGGCUAGACCGCC [C10U A16U U43C], the self-cleavage was 0.03.
On to GGCAGAGCUUAAGAAAGCGUGACAAAGUGGCUGUGGCUAGUCUGCC [C10U C13G C15A G22A A41U], for which the self-cleavage was found to be 0.04.
Consider GGCAGAGCUUAACCCAGCGUGGCAAAGUGGCCGUGGCUAAACUGCC [C10U A14C U32C G40A], for which the self-cleavage was 0.02.
Consider GGCAGAGCUUAACACAGCGUGGCGAAGUGGCAGUGGCUAGACUGCC [C10U A24G U32A], for which the self-cleavage is 0.03.
As for GGCAGAGCUUAACAUAGCGUGGCAAAGUGGCUGUGGCUAGACUGGC [C10U C15U C45G], the self-cleavage came to 0.14.
With GGCAGAGCUUAACAGAGCGUGCCAAAGUGGCUGUGGCUAGACUGCC [C10U C15G G22C], the self-cleavage was 0.02.
For GGCAGAGCUUAACGCAGCUUGGCAAAGUGGCUGUGGCUAGACUGCC [C10U A14G G19U], the self-cleavage came to 0.08.
With GGCAGAGCUUAUCACAGCGUGGCAAAGUGGCUGUGGCUAUACUGCC [C10U A12U G40U] the figure was 0.03.
With GGCAGAGCUUAACACAGCGUGGCAGAGUGGCUGUGGAUAGACUGCC [C10U A25G C37A], the self-cleavage is 0.01.
GGCAGAGCUUAAGACACCGUGGCAAAUUGGCUGUGGCCAGACUGCC [C10U C13G G17C G27U U38C]: the self-cleavage stood at 0.01.
Take GGCAGAGCUUAACUCAGCGUGGCAACGUGGCCUUAGCUAGACUGCC [C10U A14U A26C U32C G33U G35A]: the self-cleavage stood at 0.04.
For GGCAGAGCUUAACACAGCGUGGCAUAGUGGUUGUGGCUAGACUGCC [C10U A25U C31U], the self-cleavage is 0.48.

Source of the values: the RNAGym collection of RNA variant scans (doi:10.7554/elife.90254).
